The supplement of paper PMC10126150
Values marked as one replicate rest on one cluster of the flow cell; about a third of the high ones do not repeat.

system: ATP; test: switch fluorescence ratio, 500 uM ATP over buffer (Cy3 cluster intensity, sum of 5 cycles each) (fold (ratio)); higher = stronger signal-on switching upon ATP binding; sequences stand for … in TCGTCGGCAGCGTCAGATGTGTATAAGAGACAGTTTTTTTTTTTTTTTTTTTTTTTTT…TC; conditions: aptamer strand: ATP DNA aptamer (quencher-CACCTGGGGGAGTATTGCGGAGGAAGG + anchor), 100 nM annealed; ATP concentration: 500 uM; one replicate
How it was run: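 Switching-strand clusters labelled with Cy3 on a modified Illumina MiSeq flow-cell were annealed to 100 nM quencher-labelled ATP aptamer, imaged in selection buffer, and re-imaged after 15 min with 500 uM ATP at 22 °C. This was done over five cycles with NaOH stripping and re-annealing in between. The fluorescence ratio is summed target-cycle over summed buffer-cycle Cy3 intensity per cluster, averaged per switch-domain sequence, excluding clusters outside 100-1000 RFU.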
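Note: ATP exposure 15 min at 22 °C before imaging.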

Row | Sequence | switch fluorescence ratio
1 | CTTCTGGGTG | 1.07
2 | CGCATCTGCC | 1.23
3 | GCTTGATTG | 1.01
4 | TAGCATAGTG | 0.978
5 | TTGCAGTATG | 1.1
6 | CATCTTG | 1.01
7 | TCCGGAGGG | 1.06
8 | TCAGATATGC | 1.05
9 | CCTGATTAAC | 1.05
10 | GACTTTCCGC | 1.5
11 | TACATTGCGG | 0.986
12 | CTTGCCGTGA | 0.988
13 | GAAGTCAGCG | 0.966
14 | ACTGCCCCCA | 1.53
15 | TGGCTTAGA | 0.97
16 | CAGGTAAGTA | 0.992
17 | GTAGCCCTGA | 1.04
18 | TGCCATATGT | 1.03
19 | TTATCTACAT | 1.05
20 | GGGACACGGA | 1.1
21 | CAATTAAGGC | 0.973
22 | ACAGCTAAT | 1.05
23 | CTCATTGGTG | 1.09
24 | TGAGTCCCTC | 0.991
25 | CATGGCATTC | 1.24
26 | TCAGGGGAGA | 0.999

Row | Sequence | switch fluorescence ratio
27 | CCACTGGAAT | 1.25
28 | GGCGGTTTCG | 0.99
29 | AAATGAGACT | 0.979
30 | AAAGTCACAT | 1.02
31 | TGAGTTTCGT | 0.972
32 | AATTATGTAT | 1.05
33 | CAAGCCAACC | 1.07
34 | ATACAAGTCC | 1.01
35 | GATCACTAAT | 1.02
36 | TCGAAGCAAC | 4.48
37 | GAGAAGCGGC | 0.982
38 | TAGAACAATG | 1.01
39 | TTTGCTCTCT | 1.21
40 | GATTGAAGGA | 0.973
41 | TCAGGTTAGA | 1.03
42 | GCCAATTGAC | 1.09
43 | AGGCAGATGT | 1.01
44 | TAAAGGACTC | 0.989
45 | ACGGGAGTCG | 1.03
46 | TTAAGGGAGA | 0.982
47 | CTTGGGGGTA | 0.984
48 | ATTTTTGATA | 1.01
49 | CATAAGTACG | 1.3
50 | TTAAGACC | 1.01
51 | CTACGGTGGT | 1
52 | TCACATCGGC | 0.998

Row | Sequence | switch fluorescence ratio
53 | GGTAGAAGAG | 0.972
54 | CTGAATGTA | 0.962
55 | CTGTTCAGCG | 1.03
56 | GATATCGGGC | 1.02
57 | AGTTATGCTA | 1.01
58 | AGTCTTGCGC | 1.02
59 | GAACCATTTA | 1.03
60 | GAGTCGGTTT | 0.983
61 | ATATCTATAA | 0.978
62 | CATTAT | 1.05
63 | AATGTCGCAA | 1.74
64 | CGGTACAG | 1.01
65 | CTTGTAAGCC | 1.02
66 | GCAAGACGCA | 1.73
67 | TTTCGAAACC | 1.06
68 | AAGTGAATAG | 1.04
69 | GTGGGAGTCG | 1.02
70 | AACGTAAAA | 1.02
71 | CAGATAGGGT | 0.976
72 | GTAATATATC | 1.04
73 | GGGGCCGCTC | 1.03
74 | TCGCTCTTTG | 0.99
75 | CGTACCAAC | 1.17
76 | CAGAGTGATC | 1.01
77 | CGGTCTCTCA | 0.985
78 | CCGATAGTTT | 1.44

Row | Sequence | switch fluorescence ratio
79 | TACGGGTGGC | 1.01
80 | GTTACTGGTT | 1.09
81 | TGCTAGAGAT | 0.984
82 | TCATAGCCGT | 1.03
83 | CTCTCCTCGG | 1.37
84 | TGGCTCCTAA | 0.972
85 | CATAGGAC | 0.985
86 | GGTGAGTCCA | 1.02
87 | ATGTTGGCTT | 0.982
88 | AGCTTTGAAA | 0.957
89 | ATGTAAGGGA | 0.998
90 | CGTGCTCACA | 1
91 | TCCAGAGAAC | 1.01
92 | GAGCTAGGAC | 1.06
93 | GCGCATGTTA | 1.03
94 | GGAGTGTCTG | 1.03
95 | GTAGGCGCGT | 0.987
96 | TACCGCTGT | 1.11
97 | AGATCGAGGT | 1.05
98 | AAGAGGTCCT | 1.08
99 | CAGTGTCAGT | 0.952
100 | TGGCTATTG | 0.981
101 | ACTAATGAGA | 1
102 | TCTAACGGAG | 1.05
103 | ACCGATATGG | 0.989
104 | GGCGTCATGA | 0.96

Row | Sequence | switch fluorescence ratio
105 | GTCGGGCCTC | 0.994
106 | TTGGCTTACA | 1.03
107 | TTTGGTGATG | 1.01
108 | GGTTGGTGGA | 0.935
109 | GGATCAAGA | 0.984
110 | CTTAGCCCGG | 1.01
111 | CTGTTGCTTC | 0.993
112 | CCACCTCTCA | 1.07
113 | GGGATTACCT | 1.08
114 | TCCACGACCT | 1.08
115 | GGGAGTGCCT | 1.02
116 | CGTCCCTA | 0.987
117 | TACGCACTAT | 1.51
118 | GCTGAACACT | 1.01
119 | TCCTCGACCT | 1.4
120 | CTTACGAGGG | 0.976
121 | AAAATCACGA | 1.22
122 | GGAACCTGCG | 1.18
123 | CTACGGAGGA | 1.16
124 | TGCGACCTTT | 0.996
125 | GTATGAAGTA | 0.99
126 | ATTTTAAGCT | 0.995
127 | AGAATCACGG | 1.07
128 | TCGCCAGGGT | 1.06
129 | GCATCCTCTG | 1.12
130 | CATGGTCAGC | 1.01

Row | Sequence | switch fluorescence ratio
131 | ATGTTCATTA | 0.974
132 | GGATTCTTCG | 1.07
133 | GAACAGGTTT | 1
134 | GGGCTTCGGC | 0.992
135 | TAGTCAAGAT | 1.05
136 | TTTTGACGCA | 1.63
137 | TACAGGTGAA | 1.78
138 | CCGGATGGTT | 1.39
139 | ATAAGCTGCT | 1.02
140 | ACTAGGATGT | 0.989
141 | GTACGTTTTG | 0.974
142 | GGCTACGTTA | 1.17
143 | GAACTAAATA | 1.06
144 | TCGTGTTCC | 1.08
145 | AGGCCCCAAT | 1.08
146 | AACTGGCGGG | 0.992
147 | CAGTGTGGCC | 0.976
148 | TGGGTTACAG | 1.03
149 | TGGCTCGGGA | 1.04
150 | GTAATTCGAG | 1.02
151 | CTCGTCAACC | 1.42
152 | GGGTGCGACC | 1.01
153 | AAAAGGGAA | 1.02
154 | ATAAGGTTAC | 1
